Laboratory results: the supplement of paper PMC4967469

Assays:
Assay in all cases: Viability of human cancer cell lines after 72 h of drug (GDSC screen)
AMG-706 = compound: CC1(C)CNc2cc(NC(=O)c3cccnc3NCc3ccncc3)ccc21 [AMG-706]; settings: top dose 2 µM; top dose inferred
Method: (§1)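 Human cancer cell lines in 384-well plates, medium with 10% serum, drug for 72 h over a 256-fold dose range (nine 2-fold or five 4-fold steps up to the top dose). Adherent lines were fixed and stained with the nucleic acid dye Syto60, suspension lines read with resazurin; signal relative to control wells, capped at 0 and 100%. One two-parameter sigmoid per drug and line, fitted in a mixed model over all curves with the slope shared within a line.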

Cyclopamine = compound: CC1=C2C[C@H]3[C@@H](CC=C4C[C@@H](O)CC[C@@]43C)[C@@H]2CC[C@]12O[C@@H]1C[C@H](C)CN[C@H]1[C@H]2C [Cyclopamine]; settings: top dose 16 µM; top dose inferred
Method: as §1

JNK Inhibitor VIII = compound: CCOc1nc(NC(=O)Cc2cc(OC)ccc2OC)cc(N)c1C#N [JNK Inhibitor VIII]; settings: top dose 10 µM; top dose inferred
Method: as §1

NSC-207895 = compound: CN1CCN(c2ccc([N+](=O)[O-])c3no[n+]([O-])c23)CC1 [NSC-207895]; settings: top dose 20 µM; top dose inferred
Method: as §1

FTI-277 = compound: COC(=O)[C@H](CCSC)NC(=O)c1ccc(NC[C@@H](N)CS)cc1-c1ccccc1 [FTI-277]; settings: top dose 1.024 µM; top dose inferred
Method: as §1

YM155 = compound: COCC[n+]1c2c(n(Cc3cnccn3)c1C)C(=O)c1ccccc1C2=O [YM155]; settings: top dose 5.12 µM
Method: as §1

NVP-TAE684 = compound: COc1cc(N2CCC(N3CCN(C)CC3)CC2)ccc1Nc1ncc(Cl)c(Nc2ccccc2S(=O)(=O)C(C)C)n1 [NVP-TAE684]; settings: top dose 2 µM
Method: as §1

OSI-906 = compound: C[C@]1(O)C[C@@H](c2nc(-c3ccc4ccc(-c5ccccc5)nc4c3)c3c(N)nccn32)C1 [OSI-906]; settings: top dose 2.56 µM; top dose inferred
Method: as §1

SB-715992 = compound: Cc1ccc(C(=O)N(CCCN)[C@@H](c2nc3cc(Cl)ccc3c(=O)n2Cc2ccccc2)C(C)C)cc1 [SB-715992]; settings: top dose 0.128 µM; top dose inferred
Method: as §1

Belinostat = compound: O=C(/C=C/c1cccc(S(=O)(=O)Nc2ccccc2)c1)NO [Belinostat]; settings: top dose 20 µM; top dose inferred
Method: as §1

CGP-60474 = compound: OCCCNc1cc(-c2ccnc(Nc3cccc(Cl)c3)n2)ccn1 [CGP-60474]; settings: top dose 0.256 µM; top dose inferred
Method: as §1

JNJ-26854165 = compound: c1ccc2c(CCNc3ccc(Nc4ccncc4)cc3)c[nH]c2c1 [JNJ-26854165]; settings: top dose 10 µM
Method: as §1

JQ1 = compound: Cc1sc2c(c1C)C(c1ccc(Cl)cc1)=N[C@@H](CC(=O)OC(C)(C)C)c1nnc(C)n1-2 [JQ1]
Method: as §1

Docetaxel = compound: CC(=O)O[C@@]12CO[C@@H]1C[C@H](O)[C@@]1(C)C(=O)[C@H](O)C3=C(C)[C@@H](OC(=O)[C@H](O)[C@@H](NC(=O)OC(C)(C)C)c4ccccc4)C[C@@](O)([C@@H](OC(=O)c4ccccc4)[C@H]21)C3(C)C [Docetaxel]; settings: top dose 0.0125 µM
Method: as §1

[1] = top dose 1 µM, screen: GDSC drug entry 1218, top dose inferred
[2] = top dose 2.56 µM, screen: GDSC drug entry 163

| Cell Line | AUC (AMG-706) | IC50 (AMG-706) [µM] | AUC (Cyclopamine) | IC50 (Cyclopamine) [µM] | AUC (JNK Inhibitor VIII) | IC50 (JNK Inhibitor VIII) [µM] | AUC (NSC-207895) | IC50 (NSC-207895) [µM] | AUC (FTI-277) | IC50 (FTI-277) [µM] | AUC (YM155) | IC50 (YM155) [µM] | AUC (NVP-TAE684) | IC50 (NVP-TAE684) [µM] | AUC (OSI-906) | IC50 (OSI-906) [µM] | AUC (SB-715992) | IC50 (SB-715992) [µM] | AUC (Belinostat) | IC50 (Belinostat) [µM] | AUC (CGP-60474) | IC50 (CGP-60474) [µM] | AUC (JNJ-26854165) | IC50 (JNJ-26854165) [µM] | AUC (JQ1; [1]) | IC50 (JQ1; [1]) [µM] | AUC (JQ1; [2]) | IC50 (JQ1; [2]) [µM] | AUC (Docetaxel) | IC50 (Docetaxel) [µM] |
| --- | --- | --- | --- | --- | --- | --- | --- | --- | --- | --- | --- | --- | --- | --- | --- | --- | --- | --- | --- | --- | --- | --- | --- | --- | --- | --- | --- | --- | --- | --- |
| NB-4 (acute myeloid leukaemia, suspension) | 0.991 | > 2 | 0.903 | 14.2 | 0.985 | > 10 | 0.829 | 9.45 | 0.991 | > 1.02 | 0.014 | < 0.02 | 0.665 | 0.326 | 0.519 | 0.179 | 0.56 | 0.0113 | 0.163 | 0.155 | 0.741 | 0.0666 | 0.882 | 7.28 | – | – | – | – | – | – |
| NCI-H524 (small cell lung carcinoma, suspension) | 0.987 | > 2 | 0.99 | > 16 | 0.99 | > 10 | 0.985 | > 20 | 0.989 | > 1.02 | – | – | 0.783 | 0.747 | 0.978 | > 2.56 | 0.63 | 0.0175 | 0.913 | > 20 | 0.809 | 0.117 | 0.923 | > 10 | 0.983 | > 1 | 0.958 | > 2.56 | – | – |
| NCI-H748 (small cell lung carcinoma, suspension) | – | – | 0.979 | > 16 | – | – | 0.741 | 7.56 | 0.959 | > 1.02 | 0.063 | < 0.02 | 0.97 | > 2 | 0.973 | > 2.56 | 0.838 | 0.124 | 0.261 | 0.209 | 0.756 | 0.11 | – | – | – | – | 0.724 | 0.842 | – | – |
| NK-92MI (lymphoid neoplasm, suspension) | – | – | 0.967 | > 16 | – | – | – | – | 0.984 | > 1.02 | – | – | 0.847 | 1.32 | 0.984 | > 2.56 | 0.816 | 0.0646 | – | – | 0.662 | 0.0434 | – | – | – | – | 0.969 | > 2.56 | – | – |
| SCC-3 (B-cell lymphoma, suspension) | – | – | 0.993 | > 16 | – | – | 0.997 | > 20 | 0.997 | > 1.02 | 0.01 | < 0.02 | 0.012 | < 0.00781 | 0.997 | > 2.56 | 0.676 | 0.0213 | 0.384 | 0.657 | 0.652 | 0.0372 | – | – | – | – | 0.936 | 2.24 | – | – |
| SW982 (soft tissue, adherent) | 0.985 | > 2 | – | – | 0.974 | > 10 | 0.942 | > 20 | 0.951 | > 1.02 | 0.078 | < 0.02 | 0.536 | 0.157 | 0.964 | > 2.56 | 0.712 | 0.0323 | 0.414 | 0.722 | 0.57 | 0.025 | 0.815 | 5.72 | 0.962 | > 1 | 0.401 | 0.085 | 0.602 | 0.0015 |
| TE-11 (oesophagus, adherent) | 0.99 | > 2 | – | – | 0.986 | > 10 | 0.989 | > 20 | 0.99 | > 1.02 | 0.456 | 0.246 | 0.561 | 0.181 | 0.407 | 0.091 | 0.83 | 0.0709 | 0.957 | > 20 | 0.599 | 0.0291 | 0.917 | > 10 | 0.989 | > 1 | 0.802 | 1.13 | 0.444 | 0.000558 |
| TGBC24TKB (biliary tract, adherent) | – | – | – | – | – | – | 0.981 | > 20 | 0.988 | > 1.02 | 0.733 | 1.4 | 0.683 | 0.392 | 0.788 | 1.04 | 0.926 | > 0.128 | 0.468 | 1.03 | 0.906 | > 0.256 | 0.887 | 9.92 | 0.986 | > 1 | 0.574 | 0.251 | – | – |
| VAL (B-cell lymphoma, suspension) | 0.987 | > 2 | 0.897 | > 16 | 0.987 | > 10 | 0.914 | > 20 | 0.986 | > 1.02 | 0.03 | < 0.02 | 0.95 | > 2 | 0.973 | > 2.56 | 0.661 | 0.0225 | 0.161 | 0.114 | – | – | 0.9 | > 10 | 0.985 | > 1 | 0.673 | 0.487 | 0.936 | > 0.0125 |
| no-11 (glioma, adherent) | 0.965 | > 2 | 0.896 | > 16 | 0.968 | > 10 | 0.947 | > 20 | 0.941 | > 1.02 | 0.039 | < 0.02 | – | – | 0.938 | > 2.56 | 0.93 | > 0.128 | 0.76 | 8.78 | 0.586 | – | 0.951 | > 10 | 0.98 | > 1 | 0.628 | 0.394 | 0.83 | 0.0107 |

The IC50 comes from the fitted curve, where viability falls to half of the control; a fit beyond the top or the lowest dose is shown as a bound at that dose. The AUC spans the tested range (256-fold, ending at the top dose) of the same fit: 1 means no effect, lower means more sensitive. For part of these data: The top dose, if marked as inferred, is not printed in the source and was worked back from the curve model. For part of these data: Drugs with an entry number were screened twice under separate entries, and the two screens often disagree.
